In patent KR20220059888A (dated 2022):
Numbering of substitutions follows the chain as printed.

B1: Ang1mab4 (antibody, human IgG4 S228P, kappa)
heavy: QVQLVQSGGGVVQPGRSLRLSCAASGLTFSNYAMHWVRQAPGKGLEWVAVISYDGENKYYADSVKGRFTISRDNSKNMLQLQMNRLRSEDTAVYYCATPKGGALEIWGQGTVITVSSASTKGPSVFPLAPCSRSTSESTAALGCLVKDYFPEPVTVSWNSGALTSGVHTFPAVLQSSGLYSLSSVVTVPSSSLGTKTYTCNVDHKPSNTKVDKRV[sequence of human IgG4 Fc with S228P (EU numbers) omitted]
light: DIQMTQSPDSLAVSLGERATINCKSSQSVLYSSNNKNYLAWYQQKPGQPPNLLMYWASTRESGVPDRFSGSGSGTDFTLTISSLQAEDVAVYYCQQYYSAPITFGQGTRLEIKRTVAAPSVFIFPPSDEQLKSGTASVVCLLNNFYPREAKVQWKVDNALQSGNSQESVTEQDSKDSTYSLSSTLTLSKADYEKHKVYACEVTHQGLSSPVTKSFNRGEC
notes: also called 제1 기본 항체; 기본 항체(Ang1mab4)
B2: Ang1mab4(H1G01A) (antibody, human IgG4 S228P, kappa)
heavy: B1 heavy with G26A
light: B1 light
notes: frameworks and constant regions as in Ang1mab4; also called 변이 항체
B3: Ang1mab4(H1L02A) (antibody, human IgG4 S228P, kappa)
heavy: B1 heavy with L27A
light: B1 light
notes: also called 변이 항체
B4: Ang1mab4(H1S05A) (antibody, human IgG4 S228P, kappa)
heavy: B1 heavy with S30A
light: B1 light
notes: also called 변이 항체
B5: Ang1mab4(H1V12A) (antibody, human IgG4 S228P, kappa)
heavy: B1 heavy with V37A
light: B1 light
notes: also called 변이 항체
B6: Ang1mab4(L1Q01A) (antibody, human IgG4 S228P, kappa)
heavy: B1 heavy
light: B1 light with Q27A
notes: also called 변이 항체
B7: Ang1mab4(L1S07A) (antibody, human IgG4 S228P, kappa)
heavy: B1 heavy
light: B1 light with S33A
notes: also called 변이 항체
B8: Ang1mab4(L1V03A) (antibody, human IgG4 S228P, kappa)
heavy: B1 heavy
light: B1 light with V29A
notes: also called 변이 항체
B9: Ang1mab4(L1Y05F) (antibody, human IgG4 S228P, kappa)
heavy: B1 heavy
light: B1 light with Y31F
notes: also called 변이 항체

Assays:
[1] = biological target: T1, 개 Tie2 단백질 (개 (dog), UniProt A0A8I3S0B4 27-1128); experiment: flow cytometry; HEK293T cells transfected with dog Tie2
T1 construct: whole, on cells; also called 다른 종 유래의 Tie2 단백질
T1 sequence: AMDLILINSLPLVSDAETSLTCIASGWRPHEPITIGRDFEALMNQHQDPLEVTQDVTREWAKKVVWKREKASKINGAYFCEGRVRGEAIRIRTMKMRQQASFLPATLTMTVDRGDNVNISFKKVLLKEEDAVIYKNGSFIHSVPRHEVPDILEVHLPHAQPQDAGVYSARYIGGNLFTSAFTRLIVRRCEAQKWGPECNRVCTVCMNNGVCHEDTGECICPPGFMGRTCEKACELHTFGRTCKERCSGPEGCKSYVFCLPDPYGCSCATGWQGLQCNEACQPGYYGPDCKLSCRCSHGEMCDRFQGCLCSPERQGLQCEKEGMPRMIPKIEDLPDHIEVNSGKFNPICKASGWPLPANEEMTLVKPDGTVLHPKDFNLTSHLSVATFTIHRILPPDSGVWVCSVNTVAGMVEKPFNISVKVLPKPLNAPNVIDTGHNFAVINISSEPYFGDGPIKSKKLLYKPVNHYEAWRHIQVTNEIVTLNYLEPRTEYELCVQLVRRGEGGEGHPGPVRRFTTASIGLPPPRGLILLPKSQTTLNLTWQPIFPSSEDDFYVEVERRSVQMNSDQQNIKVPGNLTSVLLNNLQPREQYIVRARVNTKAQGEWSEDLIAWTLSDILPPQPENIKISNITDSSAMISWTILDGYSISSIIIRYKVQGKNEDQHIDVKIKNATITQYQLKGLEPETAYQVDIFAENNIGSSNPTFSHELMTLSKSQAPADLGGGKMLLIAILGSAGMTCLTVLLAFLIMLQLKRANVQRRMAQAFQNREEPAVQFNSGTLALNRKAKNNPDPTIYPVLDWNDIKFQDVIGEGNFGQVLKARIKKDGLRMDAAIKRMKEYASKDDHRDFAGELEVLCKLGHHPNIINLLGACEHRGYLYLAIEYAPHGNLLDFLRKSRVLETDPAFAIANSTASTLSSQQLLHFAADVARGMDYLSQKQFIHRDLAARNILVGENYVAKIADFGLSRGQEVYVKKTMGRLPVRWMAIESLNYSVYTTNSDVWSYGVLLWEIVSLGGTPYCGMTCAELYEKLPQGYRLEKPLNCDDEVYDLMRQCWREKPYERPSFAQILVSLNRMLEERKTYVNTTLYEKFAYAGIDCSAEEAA

[2] = biological target: T2, 랫 Tie2 단백질 (랫 (rat), UniProt A0ABK0L6J5 19-1116); experiment: flow cytometry; HEK293T cells transfected with rat Tie2
T2 construct: whole, on cells; also called 다른 종 유래의 Tie2 단백질
T2 sequence: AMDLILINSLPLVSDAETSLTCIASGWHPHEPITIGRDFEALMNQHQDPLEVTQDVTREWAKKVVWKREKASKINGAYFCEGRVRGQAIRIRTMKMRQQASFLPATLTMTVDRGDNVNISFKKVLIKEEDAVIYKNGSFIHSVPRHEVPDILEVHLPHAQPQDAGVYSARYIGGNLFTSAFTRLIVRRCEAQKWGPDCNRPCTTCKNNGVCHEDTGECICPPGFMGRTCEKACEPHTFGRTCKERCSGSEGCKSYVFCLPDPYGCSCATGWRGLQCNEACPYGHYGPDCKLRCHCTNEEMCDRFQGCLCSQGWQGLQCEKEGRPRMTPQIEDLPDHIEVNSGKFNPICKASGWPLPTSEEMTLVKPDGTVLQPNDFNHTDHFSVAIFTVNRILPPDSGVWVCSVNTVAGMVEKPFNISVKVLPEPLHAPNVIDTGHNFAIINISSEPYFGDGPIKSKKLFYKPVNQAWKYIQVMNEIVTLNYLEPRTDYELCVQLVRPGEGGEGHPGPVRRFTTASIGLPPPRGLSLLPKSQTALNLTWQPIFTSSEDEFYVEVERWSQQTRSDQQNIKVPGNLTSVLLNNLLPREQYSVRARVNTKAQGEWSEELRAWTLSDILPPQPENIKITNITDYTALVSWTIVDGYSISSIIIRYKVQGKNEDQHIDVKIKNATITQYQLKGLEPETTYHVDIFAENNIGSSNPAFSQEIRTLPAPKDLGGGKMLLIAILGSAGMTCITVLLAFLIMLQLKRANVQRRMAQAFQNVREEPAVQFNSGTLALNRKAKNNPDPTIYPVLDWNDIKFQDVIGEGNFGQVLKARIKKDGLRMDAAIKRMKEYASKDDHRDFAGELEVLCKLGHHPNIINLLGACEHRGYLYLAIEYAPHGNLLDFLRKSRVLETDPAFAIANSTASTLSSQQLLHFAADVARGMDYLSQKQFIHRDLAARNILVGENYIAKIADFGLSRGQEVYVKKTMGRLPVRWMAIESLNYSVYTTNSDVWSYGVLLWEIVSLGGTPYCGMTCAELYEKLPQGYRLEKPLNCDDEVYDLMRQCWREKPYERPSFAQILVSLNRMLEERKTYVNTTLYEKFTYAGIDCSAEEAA

[3] = biological target: T3, 인간 Tie2-Fc 재조합 단백질 (인간 (human), UniProt Q02763 23-748, limits assumed); experiment: BLI (Octet K2); human Tie2-Fc immobilised on AR2G tip; antibody 30-1.63 nM; global fit
T3 construct: Human Tie2-Fc recombinant protein, coated in ELISA and immobilised in BLI; also called 인간 Tie2-Fc 단백질; 항원; not shown: Fc part

[4] = biological target: T4, 마우스 Tie2 단백질 (마우스 (mouse), UniProt Q02858 23-1122); experiment: flow cytometry; HEK293T cells transfected with mouse Tie2
T4 construct: whole, on cells; also called 다른 종 유래의 Tie2 단백질
T4 sequence (looked up): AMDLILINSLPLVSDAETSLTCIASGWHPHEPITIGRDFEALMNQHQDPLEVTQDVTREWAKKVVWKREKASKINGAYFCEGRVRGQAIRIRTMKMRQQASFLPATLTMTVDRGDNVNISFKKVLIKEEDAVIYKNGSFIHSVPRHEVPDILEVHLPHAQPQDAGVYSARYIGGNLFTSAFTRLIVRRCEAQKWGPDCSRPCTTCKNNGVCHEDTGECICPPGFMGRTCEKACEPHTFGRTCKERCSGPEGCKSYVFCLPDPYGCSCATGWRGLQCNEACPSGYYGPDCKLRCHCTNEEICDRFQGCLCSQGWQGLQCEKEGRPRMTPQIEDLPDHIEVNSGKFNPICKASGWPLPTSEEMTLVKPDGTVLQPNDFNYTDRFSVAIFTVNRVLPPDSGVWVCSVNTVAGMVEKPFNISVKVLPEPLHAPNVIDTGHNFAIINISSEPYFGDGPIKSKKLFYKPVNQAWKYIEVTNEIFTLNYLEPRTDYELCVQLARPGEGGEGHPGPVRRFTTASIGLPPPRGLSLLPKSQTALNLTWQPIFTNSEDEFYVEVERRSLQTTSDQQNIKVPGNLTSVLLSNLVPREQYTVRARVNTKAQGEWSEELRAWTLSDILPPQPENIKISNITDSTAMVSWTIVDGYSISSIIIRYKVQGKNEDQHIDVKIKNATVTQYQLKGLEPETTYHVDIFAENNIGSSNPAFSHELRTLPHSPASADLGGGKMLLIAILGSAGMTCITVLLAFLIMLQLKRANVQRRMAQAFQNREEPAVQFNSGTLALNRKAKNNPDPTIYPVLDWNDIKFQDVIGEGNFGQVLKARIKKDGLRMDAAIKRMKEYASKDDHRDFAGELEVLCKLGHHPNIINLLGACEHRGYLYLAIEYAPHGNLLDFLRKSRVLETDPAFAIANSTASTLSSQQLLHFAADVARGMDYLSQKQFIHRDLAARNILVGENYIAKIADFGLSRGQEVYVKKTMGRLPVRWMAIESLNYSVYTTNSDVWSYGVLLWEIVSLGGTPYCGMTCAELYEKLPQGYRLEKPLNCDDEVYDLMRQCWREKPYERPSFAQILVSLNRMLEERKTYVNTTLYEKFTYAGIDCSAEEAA

Binder | binding result [1] | binding result [2] | Kd [3] [nM] | koff [3] [s⁻¹] | kon [3] [M⁻¹ s⁻¹] | binding result [4]
B1 | no binding (tested: 5-g/ml (so in the source)) | no binding (tested: 5-g/ml (so in the source)) | 0.529 | 4.6e-05 | 87000 | no binding (tested: 5-g/ml (so in the source))
B2 | no binding (tested: 5-g/ml (so in the source)) | no binding (tested: 5-g/ml (so in the source)) | 0.761 | 7.12e-05 | 93800 | no binding (tested: 5-g/ml (so in the source))
B3 | no binding (tested: 5-g/ml (so in the source)) | no binding (tested: 5-g/ml (so in the source)) | 0.471 | 4.56e-05 | 97100 | no binding (tested: 5-g/ml (so in the source))
B4 | no binding (tested: 5-g/ml (so in the source)) | no binding (tested: 5-g/ml (so in the source)) | 0.934 | 8.31e-05 | 88900 | no binding (tested: 5-g/ml (so in the source))
B5 | no binding (tested: 5-g/ml (so in the source)) | no binding (tested: 5-g/ml (so in the source)) | 0.997 | 7.62e-05 | 76700 | no binding (tested: 5-g/ml (so in the source))
B6 | no binding (tested: 5-g/ml (so in the source)) | no binding (tested: 5-g/ml (so in the source)) | 1.36 | 0.000148 | 109000 | no binding (tested: 5-g/ml (so in the source))
B7 | no binding (tested: 5-g/ml (so in the source)) | no binding (tested: 5-g/ml (so in the source)) | 0.682 | 7.54e-05 | 111000 | no binding (tested: 5-g/ml (so in the source))
B8 | no binding (tested: 5-g/ml (so in the source)) | no binding (tested: 5-g/ml (so in the source)) | 0.538 | 4.72e-05 | 87700 | no binding (tested: 5-g/ml (so in the source))
B9 | no binding (tested: 5-g/ml (so in the source)) | no binding (tested: 5-g/ml (so in the source)) | 0.474 | 4.8e-05 | 101000 | no binding (tested: 5-g/ml (so in the source))
